In paper PMC10668032:
The list shows a part of the results. At the low end of the ranking, values are background and their order means little.

Biological target: SIX1 homeodomain (reference allele) (UniProt Q15475)
Experiment: universal protein binding microarray
Details: Universal all-10-mer PBM (8x60K, AMADID 030236), 300 nM GST-tagged protein, Alexa Fluor 488 anti-GST; buffer, salt, pH and temperature not stated; high values mean tight binding; most listed sequences are background and not binding sites; double strand, one strand shown

| Sequence | binding signal [E-score] |
| --- | --- |
| GGGGCCGA | -0.195 |
| ACCCCTCG | 0.215 |
| AGGCCAGG | -0.0172 |
| AAAGCGTC | -0.2 |
| GAGGGGCC | -0.124 |
| CTTCGCCC | -0.26 |
| CATAGCGG | 0.048 |
| CCGTAATA | 0.205 |
| GCTGGACA | -0.192 |
| GGTAGTTA | -0.0773 |
| AGGTTGAA | -0.00859 |
| GTCCCCAA | -0.128 |
| ACCGCATG | -0.00694 |
| AGAGCTGG | 0.0647 |
| CCTCGAGG | 0.197 |
| GGAGTGCA | -0.019 |
| CCGCCGGA | 0.0602 |
| GCCCAGTA | -0.129 |
| GCAGATGC | -0.0772 |
| CGATCAAG | 0.043 |
| AATATGCC | 0.16 |
| CATCTGGG | 0.0392 |

| Sequence | binding signal [E-score] |
| --- | --- |
| CCTGGGGA | -0.0463 |
| CTGGAAAC | -0.147 |
| ACCTATAA | -0.0384 |
| ATGGTATA | 0.336 |
| CAGCCTAG | -0.136 |
| CATTGCAA | -0.0773 |
| CTTGAGTC | -0.194 |
| CATGGCCA | -0.0546 |
| ACGCCTAG | -0.107 |
| CCCTTCGA | -0.158 |
| GTTCCTCA | -0.315 |
| CACAAGGC | -0.22 |
| AAAATATA | 0.0266 |
| CGGTTACC | 0.136 |
| CGGACCTC | -0.188 |
| CAGATTAG | 0.0645 |
| ACCAAAGA | -0.0185 |
| CTTGTCGC | -0.263 |
| GTCATTGA | 0.0717 |
| CGAATTAC | -0.175 |
| GCTTACTA | -0.0331 |
| GGCCATGA | 0.128 |

| Sequence | binding signal [E-score] |
| --- | --- |
| AGACGTTC | -0.0856 |
| ATGGTCGA | -0.0224 |
| AAAGACAG | -0.136 |
| ATCCTAAG | 0.167 |
| CCCATCCA | 0.1 |
| AAATGGAG | -0.0798 |
| CAGGATCG | 0.297 |
| CACTTATG | 0.00777 |
| CCGAATTC | -0.111 |
| AGAAAGTC | -0.357 |
| CCGATACG | 0.425 |
| GTTCTGCA | -0.148 |
| CTTCCCGA | 0.0961 |
| AAATCACC | 0.0679 |
| AAGTAGTC | -0.177 |
| AAGTCTAG | -0.243 |
| CCTTCTTC | -0.0405 |
| AGCTCCTC | -0.11 |
| CACCGAGG | 0.0607 |
| CTTCTTCC | -0.204 |
| GTTTTAGA | -0.173 |
| TATGATGA | 0.102 |

| Sequence | binding signal [E-score] |
| --- | --- |
| ATCGGAAG | 0.0993 |
| ACGGTAAG | -0.0407 |
| TCCGAAAA | -0.0299 |
| ATAGTGGA | 0.133 |
| ACAAACGG | -0.0492 |
| CCGTGCAG | 0.0226 |
| AAGTCTAA | -0.124 |
| CCCCTTTA | -0.0225 |
| CCACGCCC | 0.0158 |
| CAGATCAC | 0.367 |
| CCTATTCC | -0.0875 |
| CCTGATAA | 0.0382 |
| ACAAAGCA | -0.0493 |
| CACGCGTC | 0.0696 |
| TAGTGTAA | 0.0727 |
| GCTAGTAC | -0.141 |
| TATGGTCA | 0.0241 |
| AGGAAACT | -0.175 |
| GGCCCCAC | -0.265 |
| GATCATCC | 0.41 |
